Variants at the floor of the assay are shown more often than the library holds them.
B1: TPR 5TU (parent)
chain: GGAUCUUCUCGAUCUAACAAAAAAGACAAAUCUGCCACAAAGCUUGAGAGCAUCUUCGGAUGCAGAGGCGGCAGCCUUCGGUGGCGCGAUAGCGCCAACGUUCUCAACUAUGACACGCAAAACGCGUGCUCCGUUGAAUGGAGUUUAUCAUG

Variants of: B1
Assay: polymerase ribozyme fitness, log enrichment relative to wild type (log ratio); higher = more active; in vitro selection for triplet polymerase activity
Method in brief: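 Only genotypes with ≥10 input reads and ≥1 read per output were kept after Illumina sequencing of input and output libraries. These libraries were PCR-built, transcribed mutants of each subunit of a heterodimeric triplet polymerase ribozyme, each put through one triplicate in vitro selection round with frozen incubation at −7 °C, gel excision of extended constructs, streptavidin-bead capture and RT-PCR. Fitness is a logarithmic ratio of genotype enrichment to wild-type enrichment, from inverse-variance-weighted replicate averages, with the logarithm in base 2.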

Variant | polymerase ribozyme fitness (log ratio)
G50C G59A U90A A150G | ≤ -4.2
G50U C72U A97C | -0.611
G50C A91C C116U A120G C123A | ≤ -4.2
A49U G50A A66G C76G U145C | ≤ -4.2
G50U A60G C79G U139G U144C | ≤ -4.2
G50C G140U | ≤ -4.2
A49U U53C A98U U148C | ≤ -4.2
G50A C75A G83U C95U G126U | ≤ -4.2
G50C U134A | -3.17
G50C U90C U104G | ≤ -4.2
G50U C96A C116G U144G | -1.25
G50C A137C G141U | ≤ -4.2
G50A G86A G128A C132U | ≤ -4.2
G50A G83A A91G C108A A121C | ≤ -4.2
G50A C76A G92A U101G G128U U130G | ≤ -4.2
G50C A52G U55A U56G C57U G86A C96A U101A | ≤ -4.2
A49U G58C G124U | -1.3
A49U U53A G68U C87U | ≤ -4.2
G50U C51A C93A | ≤ -4.2
G50A G70C G81U C99A U134A | ≤ -4.2
G50C C96G U144C | ≤ -4.2
G50U G58C G83U G94C U127A G128C U146C | ≤ -4.2
G50C G68A A142U | ≤ -4.2
A49U G62C A66C G67U C96A C99G U134C U145C A147C U151G | ≤ -4.2

Variant | polymerase ribozyme fitness (log ratio)
G50A U53G U56A G81U A91C C105A A113U A142C A147G C149A | ≤ -4.2
G50U A97U U102A G124A | -2.31
G50C A91U A97U C132U | ≤ -4.2
G50U A66U C69G U135C | ≤ -4.2
G50A U78G | -4.06
G50C U82G G88C | ≤ -4.2
G50A U61A G81U G83C A91U U104G G143A | ≤ -4.2
G50U G74C G80A C85U U139C G141C | ≤ -4.2
G50U G65C G83A C87U C99G C105A | ≤ -4.2
G50A U53A A91U G124A C131G A137C | ≤ -4.2
A49U G88A A113C G140A | ≤ -4.2
C51A A60G A89U | -1.65
A49U U53A G67U G68A C95A U144C | ≤ -4.2
G50A C57G G81A C85U C116U | -2.31
G50C G62A C93U G140C A147C | ≤ -4.2
G50A C149A | ≤ -4.2
G50A A60C G86A | -3.81
C51A A52C U146G | -2.06
G50A C125A | -1.79
G50C G58A | -1.56
G50U G67U C85G C103U G140A A147G | ≤ -4.2
G50A U111G A113U A115G | ≤ -4.2
C51A A64C C93G G112C A147U | ≤ -4.2
G50A A52C U55G G84U A107G G140A | ≤ -4.2

Variant | polymerase ribozyme fitness (log ratio)
G50C U55A U111G | ≤ -4.2
G50A G86U G140U | ≤ -4.2
G50C U53G C95A A120C | ≤ -4.2
G50A U53A G86C U104G A150G | ≤ -4.2
G50A C93U U109C A110U C114G | ≤ -4.2
G50C C76G C79A G100U G124C | ≤ -4.2
G50U C93G C108G | ≤ -4.2
G50U C57U A73U G80C U109A C114U | ≤ -4.2
G50C C93U C118U A138U U145A | ≤ -4.2
G50C C76A C87A | ≤ -4.2
G50A C72A C125U C132G | ≤ -4.2
G50C A52U A66U G83A | ≤ -4.2
G50A C54G U77G A97U A120G | ≤ -4.2
G50U A66C C69U A73C | ≤ -4.2
A49U G84A G94U G136U | ≤ -4.2
G50U A60C C93G C95A | ≤ -4.2
G50C A52C U55A G86A | -3.95
G50A C51U U55A G84A C87A C93A C108U G140C U146C | ≤ -4.2
G50A C87A A106U C108G A150C | ≤ -4.2
G50C G80A C96U C116A U127C U135G | ≤ -4.2
G50A C75U C96A A97U | ≤ -4.2
G50C G70C | ≤ -4.2
G50C C87U A107U A113G A119C | ≤ -4.2
G50C C63U U82C A115U U146A | -1.83

Variant | polymerase ribozyme fitness (log ratio)
G50C C76U G83U C93G G94U C95A A97U U135C | ≤ -4.2
G50A U78C C87A C105A A121U U134G G141C A142U | ≤ -4.2
G50A C57U G74U C75G C87A A97C A150G | ≤ -4.2
G50U C85A U144A U145C | -1.01
A49U G141A A147G | ≤ -4.2
G50U C57U G74A G92C G140A | ≤ -4.2
G50A C54A C75U G86A A91C G136U | ≤ -4.2
G50C U77G A106U | ≤ -4.2
G50A U53A C85A U109G A115G C116G G126C | ≤ -4.2
A49U G136A G141A | -0.805
G50C C57U G70A G88A G143C | ≤ -4.2
G50U U77C A115C C118U | ≤ -4.2
G50C C85A | ≤ -4.2
G50C G86A C103G G124U C125U G126C | ≤ -4.2
G50C A110C | ≤ -4.2
G50C C103G U104A C105G A107U | ≤ -4.2
G50A C76A C96U | -3.13
G50C U53G C85A G94C C95A U135A G152A | ≤ -4.2
G50A C79G C85U A107G | ≤ -4.2
G50U A52C A107G | ≤ -4.2
G50A C69U G84U A98U A122G | ≤ -4.2
G50A A91U G126C | ≤ -4.2
G50A C76U C93U A98C | -3.32
G50A G65A A89U U101A A106C | -4.2

Variant | polymerase ribozyme fitness (log ratio)
G50C C54U G68A G86C A119G U151C | ≤ -4.2
G50C G80C C93A A98U | ≤ -4.2
G50U C95A C125G | -0.894
G50C G86C C103A G143C | ≤ -4.2
A49U G71C C85A | ≤ -4.2
G50A G74U G83A C85G G152C | ≤ -4.2
G50U C57U C87U U135G | ≤ -4.2
G50C A52C C54U A106C | ≤ -4.2
G50A C96G U102G C123A | ≤ -4.2
G50U U145C | -0.536
A49U U55A G62U A73G G86C | ≤ -4.2
A49U U82G U151G | ≤ -4.2
A49U U55A C76A G83A | ≤ -4.2
G50C C99U | ≤ -4.2
G50C A115U | ≤ -4.2
G50A G59U G71U A73C C95A C108G | ≤ -4.2
A49U U55A U139A G140A | ≤ -4.2
G50A U53A U56A C75U C116A U134G | ≤ -4.2
G50C A66G G68U C93U C103A G126A A137C | ≤ -4.2
G50C C54U | -2.6
G50C C54G | ≤ -4.2
G50U A107C C132A | ≤ -4.2
G50U A64C C93U A97U G136C | ≤ -4.2
G50C U82A G83C | ≤ -4.2

Variant | polymerase ribozyme fitness (log ratio)
G50C C125U | -3.89
G50A C96G U135G | ≤ -4.2
G50C G58C G70A C85G C87U G140U | ≤ -4.2
G50A C54U C93U C105G | ≤ -4.2
G50U C51U C72U C93G U101C C108A G112U A113U A121G | ≤ -4.2
A49U U55A A106G | -0.994
G50C C75G C79U U90G C93A | ≤ -4.2
G50C U77G C93G | ≤ -4.2
G50C G58U C63U C76A G92A C149G | ≤ -4.2
G50A A52U U78C C116A C149G | ≤ -4.2
G50A A91G C99U C103G | ≤ -4.2
G50A C75U A91U A150C | ≤ -4.2
G50A G94A U101A C125G U148C | ≤ -4.2
G50A C95A U111A U135A | ≤ -4.2
G50C A73U G80A G81U C95A G100U U151C | ≤ -4.2
A49U G81A C93U U151G | ≤ -4.2
G50U U61G C108U U135A | ≤ -4.2
G50C C69A C79A U82G U90G A107G A120G C129G U139G C149G | ≤ -4.2
G50A G84U A147U | -1.53
G50A C129G G136A | ≤ -4.2
G50A A73U A113U | ≤ -4.2
A49U U55G G58A C123A G126U U148A | ≤ -4.2
G50A C116A | -0.537
A49U U61A C87A G140C | ≤ -4.2

Variant | polymerase ribozyme fitness (log ratio)
G50U U53A A60G U61G A137C A150U | ≤ -4.2
G50A A98U G126A | -1.26
G50C U55G G94A A106C U134A | ≤ -4.2
G50A C93U G152A | -3.09
A49U U55A U56G | -1.76
G50U C57U C72U C95A G126U A138U U139A | ≤ -4.2
G50A C87U A110C | ≤ -4.2
G50U C95U C118A G140A | ≤ -4.2
G50U C54G | -1.98
G50U U77A C87A | ≤ -4.2
G50A C96G C129U | -3.02
G50C A52C A73G A91C C118G U135G | ≤ -4.2
G50C C76A G83U C103A C132G U145G | ≤ -4.2
A49U G81C A91G C103U U109G | ≤ -4.2
G50U A73G C95U U111C U135G G140U | ≤ -4.2
G50U C95A U109C | ≤ -4.2
A49U U61A C95A A107G | ≤ -4.2
G50A C87G G128U C129A G140U U151G | ≤ -4.2
G50C C131G | ≤ -4.2
A49U G83A U145A | -1.1
G50A G68A C96G C99U G136A | ≤ -4.2
G50C G80C C85A C95A G143U U148C | ≤ -4.2
G50A U55A U82C C96G G126C | ≤ -4.2

— the RNAGym collection of RNA variant scans (doi:10.1073/pnas.2313332121)
